# Laboratory results reported in the supplement of paper PMC8728848.
# The list shows a part of the results.
# B1: Pa IMPa (Pseudomonas aeruginosa), Q9I5W4 (protein)
# chain: MSLSTTAFPSLQGENMSRSPIPRHRALLAGFCLAGALSAQAATQEEILDAALVSGDSSQLTDSHLVALRLQQQVERIRQTRTQLLDGLYQNLSQAYDPGAASMWVLPANPDNTLPFLIGDKGRVLASLSLEAGGRGLAYGTNVLTQLSGTNAAHAPLLKRAVQWLVNGDPGAATAKDFKVSVVGVDKTAALNGLKSAGLQPADAACNALTDASCASTSKLLVLGNGASAASLSATVRARLQAGLPILFVHTNGWNQSSTGQQILAGLGLQEGPYGGNYWDKDRVPSSRTRTRSVELGGAYGQDPALVQQIVDGSWRTDYDWSKCTSYVGRTTCDDVPGLSDFSKRVDVLKGALDAYNQKAQNLFALPGTTSLRLWLLWADAVRQNIRYPMDKAADTARFQETFVADAIVGYVREAGAAQKELGSYAGQRQQSMPVSGSEETLTLTLPSAQGFTAIGRMAAPGKRLSIRIEDAGQASLAVGLNTQRIGSTRLWNTRQYDRPRFLKSPDIKLQANQSVALVSPYGGLLQLVYSGATPGQTVTVKVTGAASQPFLDIQPGEDSSQAIADFIQALDADKADWLEIRSGSVEVHAKVEKVRGSIDKDYGGDVQRFIRELNEVFIDDAYTLAGFAIPNQAKTPAIQQECAARGWDCDSETLHKLPGTQHINVDQYAQCGGGCSGNPYDQTWGLNPRGWGESHELGHNLQVNRLKVYGGRSGEISNQIFPLHKDWRVLREFGQNLDDTRVNYRNAYNLIVAGRAEADPLAGVYKRLWEDPGTYALNGERMAFYTQWVHYWADLKNDPLQGWDIWTLLYLHQRQVDKSDWDANKAALGYGTYAQRPGNSGDASSTDGNDNLLLGLSWLTQRDQRPTFALWGIRTSAAAQAQVAAYGFAEQPAFFYANNRTNEYSTVKLLDMSQGSPAWPFP
# Key:
# Assay in all cases: glycan array binding signal (z-score within array); higher = stronger binding
# Settings in all cases: glycan notation: IUPAC condensed, linker removed
# Neu5Ac(a2-8)Neu5Ac = target: Neu5Ac(a2-8)Neu5Ac
# How it was run: (§1)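 The binding signal is a Z-score computed within each array. Data were drawn from 3228 arrays in the Consortium for Functional Glycomics database, restricted to those with a known protein sequence. Scores were averaged over arrays of the same protein sequence at different concentrations or buffers, and over linkers, and negative values can be taken as non-binding.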
# [1] = target: Neu5Ac(a2-8)Neu5Ac(a2-3)Gal(b1-3)GalNAc(b1-4)[Neu5Ac(a2-3)]Gal(b1-4)Glc
# How it was run: as §1
# [2] = target: Neu5Ac(a2-8)Neu5Ac(a2-3)Gal(b1-3)GalNAc(b1-4)[Neu5Ac(a2-8)Neu5Ac(a2-3)]Gal(b1-4)Glc
# How it was run: as §1
# [3] = target: Neu5Ac(a2-8)Neu5Ac(a2-3)Gal(b1-4)Glc
# How it was run: as §1
# [4] = target: Neu5Ac(a2-8)Neu5Ac(a2-3)Gal(b1-4)GlcNAc
# How it was run: as §1
# [5] = target: Neu5Ac(a2-8)Neu5Ac(a2-3)[Gal(b1-3)GalNAc(b1-4)]Gal(b1-4)Glc
# How it was run: as §1
# [6] = target: Neu5Ac(a2-8)Neu5Ac(a2-3)[GalNAc(b1-4)]Gal(b1-4)Glc
# How it was run: as §1
# [7] = target: Neu5Ac(a2-8)Neu5Ac(a2-8)Neu5Ac
# How it was run: as §1
# [8] = target: Neu5Ac(a2-8)Neu5Ac(a2-8)Neu5Ac(a2-3)Gal(b1-4)Glc
# How it was run: as §1
# [9] = target: Neu5Ac(a2-8)Neu5Ac(a2-8)Neu5Ac(a2-3)[Gal(b1-3)GalNAc(b1-4)]Gal(b1-4)Glc
# How it was run: as §1
# [10] = target: Neu5Ac(a2-8)Neu5Ac(a2-8)Neu5Ac(a2-3)[GalNAc(b1-4)]Gal(b1-4)Glc
# How it was run: as §1
# [11] = target: Neu5Ac(a2-8)Neu5Ac(a2-8)Neu5Ac(a2-8)Neu5Ac(a2-3)[GalNAc(b1-4)]Gal(b1-4)Glc
# How it was run: as §1
# [12] = target: Neu5Ac(a2-8)Neu5Gc(a2-3)Gal(b1-4)GlcNAc
# How it was run: as §1
# [13] = target: Neu5Ac(b2-6)Gal(b1-4)GlcNAc
# How it was run: as §1
# Neu5Ac(b2-6)GalNAc = target: Neu5Ac(b2-6)GalNAc
# How it was run: as §1
# [14] = target: Neu5Ac9Ac(a2-3)Gal(b1-3)GlcNAc
# How it was run: as §1
# [15] = target: Neu5Ac9Ac(a2-3)Gal(b1-4)GlcNAc
# How it was run: as §1
# [16] = target: Neu5Ac9Ac(a2-6)Gal(b1-4)GlcNAc
# How it was run: as §1
# [17] = target: Neu5Gc(a2-3)Gal(b1-3)GlcNAc
# How it was run: as §1
# [18] = target: Neu5Gc(a2-3)Gal(b1-3)[Fuc(a1-4)]GlcNAc
# How it was run: as §1
# Neu5Gc(a2-3)Gal(b1-4)Glc = target: Neu5Gc(a2-3)Gal(b1-4)Glc
# How it was run: as §1
# [19] = target: Neu5Gc(a2-3)Gal(b1-4)GlcNAc
# How it was run: as §1
# [20] = target: Neu5Gc(a2-3)Gal(b1-4)GlcNAc(b1-3)Gal(b1-4)GlcNAc(b1-2)Man(a1-3)[Neu5Gc(a2-3)Gal(b1-4)GlcNAc(b1-3)Gal(b1-4)GlcNAc(b1-2)Man(a1-6)]Man(b1-4)GlcNAc(b1-4)GlcNAc
# How it was run: as §1
# [21] = target: Neu5Gc(a2-3)Gal(b1-4)[Fuc(a1-3)]GlcNAc
# How it was run: as §1
# [22] = target: Neu5Gc(a2-6)Gal(b1-4)GlcNAc
# How it was run: as §1
# Neu5Gc(a2-6)GalNAc = target: Neu5Gc(a2-6)GalNAc
# How it was run: as §1
# [23] = target: Neu5Gc(a2-8)Neu5Ac(a2-3)Gal(b1-4)GlcNAc
# How it was run: as §1
# [24] = target: Neu5Gc(a2-8)Neu5Gc(a2-3)Gal(b1-4)GlcNAc
# How it was run: as §1
# [25] = target: Neu5Gc(a2-8)Neu5Gc(a2-3)Gal(b1-4)GlcNAc(b1-3)Gal(b1-4)GlcNAc
# How it was run: as §1
# [26] = target: Neu5Gc(a2-8)Neu5Gc(a2-6)Gal(b1-4)GlcNAc
# How it was run: as §1
binder,measurement,setting,value
B1,glycan array binding signal (z-score),Neu5Ac(a2-8)Neu5Ac,-0.29
same,glycan array binding signal (z-score),[1],0.063
same,glycan array binding signal (z-score),[2],-0.376
same,glycan array binding signal (z-score),[3],-0.299
same,glycan array binding signal (z-score),[4],0.147
same,glycan array binding signal (z-score),[5],-0.007
same,glycan array binding signal (z-score),[6],-0.029
same,glycan array binding signal (z-score),[7],-0.349
same,glycan array binding signal (z-score),[8],0.097
same,glycan array binding signal (z-score),[9],-0.171
same,glycan array binding signal (z-score),[10],-0.558
same,glycan array binding signal (z-score),[11],0.058
same,glycan array binding signal (z-score),[12],-0.539
same,glycan array binding signal (z-score),[13],-0.034
same,glycan array binding signal (z-score),Neu5Ac(b2-6)GalNAc,0.41
same,glycan array binding signal (z-score),[14],-0.161
same,glycan array binding signal (z-score),[15],0.471
same,glycan array binding signal (z-score),[16],-0.52
same,glycan array binding signal (z-score),[17],0.464
same,glycan array binding signal (z-score),[18],-0.162
same,glycan array binding signal (z-score),Neu5Gc(a2-3)Gal(b1-4)Glc,-0.256
same,glycan array binding signal (z-score),[19],-0.067
same,glycan array binding signal (z-score),[20],0.178
same,glycan array binding signal (z-score),[21],0.877
same,glycan array binding signal (z-score),[22],0.106
same,glycan array binding signal (z-score),Neu5Gc(a2-6)GalNAc,-0.317
same,glycan array binding signal (z-score),[23],-0.076
same,glycan array binding signal (z-score),[24],-0.213
same,glycan array binding signal (z-score),[25],-0.217
same,glycan array binding signal (z-score),[26],0.724
